Measured values from PubChem BioAssay AID588855 (National Center for Advancing Translational Sciences (NCATS), 2011).
The campaign covered roughly 410,000 compounds. About 5,000 (1.2%) were called active. Inconclusive results, whose numbers are uncertain, are shown with a selection of clear calls. Calls come from the whole dose curve; as a rule, active = well fitted inhibition curve with a large enough effect; inconclusive = small, poorly fitted or top-dose-only effect; inactive = no such curve, though single readings can be large or run the other way. Potencies beside an inconclusive call are fits to weak or partial responses and may not hold up.

Assay: qHTS for Inhibitors of TGF-b; note: nearly all actives have a fitted effect of over 65% in size
Settings: HepG2 CAGA-GFP TGF-b/SMAD3 reporter, GFP fluorescence, 18 h, TGF-beta stimulated, 500 pg/mL final; series mostly up to 46.1 µM
Procedure, shortened: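 Smad-responsive CAGA-GFP expression was quantified in HEPG2 cells exposed to compounds and 500 pg/mL final TGF-beta for 18 h at 37 degrees C; unstimulated wells defined full inhibition.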
Potency is the fitted concentration of half-maximal effect; tags give direction and shape of the fitted curve.

Q: For CCc1nnc(NC(=O)C2CC(=O)N(C3CCCCC3)C2)s1 (configuration not stated), which Potency is on record?
A: Its Potency is “inactive”.

Q: For CC(C)CCNC(=O)COC(=O)c1cc(Br)c(Br)s1, which Potency is on record?
A: Its Potency is “inactive”.

Q: Which Potency does the source give for CCc1cccc(CC)c1NS(=O)(=O)c1ccc2c(c1)CCN2C(=O)C1CC1 here?
A: Its Potency is inconclusive: 22.4 µM [inhibitor, partial curve, poor fit].

Q: For CC(C)c1ccc(S(=O)(=O)c2cnc(SCC(=O)Nc3cccc(C(F)(F)F)c3)nc2N)cc1, which Potency is on record?
A: Its Potency is inconclusive: 5.62 µM [inhibitor, single point].

Q: With Cc1cc(NC(=O)c2c(F)cccc2Cl)n(-c2nc3ccccc3[nH]2)n1 as the molecule, how does the Potency read?
A: Its Potency is inconclusive: 11.2 µM [inhibitor, partial curve, poor fit].

Q: Which Potency does the source give for Cc1ccc(C)c(Nc2cc(C(=O)NC3CCCCC3)c3ccccc3n2)c1 here?
A: Its Potency is “inactive”.

Q: With Cc1ccc(C(O)c2ncc(-c3ccccc3Cl)[nH]2)cc1 (configuration not stated) as the molecule, how does the Potency read?
A: The Potency was “inactive”.

Q: With COC(=O)C(=C/C=C/c1ccco1)C(=O)OC as the molecule, how does the Potency read?
A: The Potency was inconclusive: 17.8 µM [inhibitor, partial curve, poor fit].

Q: With COc1cc(=O)[nH]c(SC(C)C(=O)Nc2nc3c(s2)CCCC3)n1 (configuration not stated) as the molecule, how does the Potency read?
A: Its Potency is “inactive”.

Q: For Cc1ccc(Cl)c2c1NC(=O)C2(O)CC(=O)c1ccc(F)cc1 (configuration not stated), which Potency is on record?
A: The Potency was inconclusive: 3.16 µM [inhibitor, partial curve, poor fit].

Q: With CCOC(=O)c1[nH]c(C)c(/C(O)=C2\C(=O)C(=O)N(CCCN3CCOCC3)C2c2cccs2)c1C (configuration not stated) as the molecule, how does the Potency read?
A: Its Potency is “inactive”.

Q: Which Potency does the source give for Cc1nc(OCC(=O)c2ccc(Cl)cc2)c(C#N)c2c1COC(C)(C)C2 here?
A: Its Potency is inconclusive: 35.5 µM [inhibitor, single point].

Q: Which Potency does the source give for Cc1cc2c3c(c1)C(C)(c1ccccc1)CC(C)(C)N3C(=O)C21C(C#N)=C(N)OC2=C1C(=O)CC(C)(C)C2 (configuration not stated) here?
A: The Potency was inconclusive: 14.1 µM [inhibitor, single point].

Q: With CC(CC(=O)Nc1nccs1)c1ccccc1 (configuration not stated) as the molecule, how does the Potency read?
A: Its Potency is “inactive”.

Q: Which Potency does the source give for O=C(CCn1c(=O)c2cccn2c2ccc(F)cc21)NCCc1ccccc1 here?
A: Its Potency is inconclusive: 35.5 µM [inhibitor, single point].

Q: Which Potency does the source give for Cc1ccc(C)c(NC(=S)NNC(=S)Nc2ccc(C(C)C)cc2)c1 here?
A: The Potency was inconclusive: 35.5 µM [inhibitor, single point].

Q: Which Potency does the source give for Cn1nc([N+](=O)[O-])nc1Sc1nnc(-c2ccccc2)o1 here?
A: The Potency was inconclusive: 17.8 µM [inhibitor, partial curve, poor fit].

Q: For C[C@@H]1CN([C@H](C)CO)C(=O)c2cc(Br)cnc2O[C@H]1CN(C)C(=O)CC1CC1, which Potency is on record?
A: Its Potency is “inactive”.

Q: Which Potency does the source give for Cc1cc(C(=O)N/N=C/c2ccc(-c3cccc(Cl)c3)o2)n[nH]1 here?
A: The Potency was “inactive”.

Q: Which Potency does the source give for CC(C)(C)c1ccc(/C=N/NC(=S)NCc2ccccc2)cc1 here?
A: Its Potency is “inactive”.

Q: With C[C@H]1CCCCO[C@H](CN(C)S(=O)(=O)c2cn(C)cn2)[C@@H](C)CN([C@@H](C)CO)C(=O)c2cc(NS(=O)(=O)c3ccccc3)ccc2O1 as the molecule, how does the Potency read?
A: The Potency was “inactive”.

Q: For O=C(CSc1ncnc2sc3c(c12)CCCCC3)NCc1ccco1, which Potency is on record?
A: The Potency was inconclusive: 11.2 µM [inhibitor, partial curve].

Q: Which Potency does the source give for O=C(Nc1nc(SCc2ccc(F)cc2)ns1)c1ccco1 here?
A: The Potency was inconclusive: 35.5 µM [inhibitor, single point].

Q: Which Potency does the source give for COc1ccc(OC)c2sc(N(CCN(C)C)C(=O)/C=C/c3cccs3)nc12 here?
A: Its Potency is inconclusive: 35.5 µM [inhibitor, single point].

Q: For CCN(c1ccccc1)S(=O)(=O)c1cccc(C(=O)OCC(=O)c2c(N)n(C)c(=O)n(C)c2=O)c1, which Potency is on record?
A: Its Potency is inconclusive: 35.5 µM [inhibitor, single point].

Q: With Cc1ccc(C(=O)NNC(=S)NC(=O)COc2ccccc2)cc1 as the molecule, how does the Potency read?
A: The Potency was inconclusive: 10 µM [inhibitor, single point].

Q: With Cc1ccc(-c2nnc(-c3ccccc3S(=O)(=O)Cc3ccc(Cl)cc3)o2)cc1 as the molecule, how does the Potency read?
A: Its Potency is inconclusive: 0.112 µM [inhibitor, full curve, poor fit].

Q: For CN(C)S(=O)(=O)c1ccc(S(=O)(=O)Nc2ccc3c(c2)oc2ccccc23)cc1, which Potency is on record?
A: Its Potency is active: 11.2 µM.

Q: Which Potency does the source give for CC(=O)C1=C(C)Nc2cc(C(F)(F)F)ccc2S1 here?
A: The Potency was inconclusive: 5.62 µM [inhibitor, full curve, poor fit].

Q: With Cn1ccnc1SCC(=O)Nc1sccc1C#N as the molecule, how does the Potency read?
A: The Potency was inconclusive: 0.708 µM [inhibitor, full curve, poor fit].

Q: Which Potency does the source give for COc1ccc(NC(=O)c2cccc3c(-c4ccc(O)c(OC)c4)coc23)cc1 here?
A: Its Potency is “inactive”.

Q: For NC1=NC(=O)/C(=C/c2cccs2)S1, which Potency is on record?
A: Its Potency is inconclusive: 3.98 µM [inhibitor, full curve, poor fit].

Q: Which Potency does the source give for CCN(CC)S(=O)(=O)c1cc(-c2nnc(Nc3ccc(OC)c(C(N)=O)c3)c3ccccc23)ccc1C here?
A: Its Potency is “inactive”.

Q: With Cc1cccc2sc(NC(=O)c3cc(S(=O)(=O)N(C)C)ccc3N3CCCC3)nc12 as the molecule, how does the Potency read?
A: The Potency was inconclusive: 2.82 µM [inhibitor, partial curve, poor fit].

Q: With Cc1sc2cc3c(c(C(=O)c4ccccc4)[n+]2c1C)-c1cccc2cccc-3c12 as the molecule, how does the Potency read?
A: The Potency was inconclusive: 22.4 µM [inhibitor, single point].

Q: Which Potency does the source give for Cc1c(N=Nc2c(-c3ccc([N+](=O)[O-])cc3)[nH]n(C(N)=S)c2=O)cccc1[N+](=O)[O-] here?
A: Its Potency is active: 8.91 µM.

Q: With CN1CCc2ccccc2C1Cc1ccccc1NC(=O)c1sc2ccccc2c1Cl (configuration not stated) as the molecule, how does the Potency read?
A: Its Potency is inconclusive: 1.58 µM [inhibitor, full curve, poor fit].

Q: For C1=CCC(/C=N/n2cnnc2)CC1 (configuration not stated), which Potency is on record?
A: Its Potency is inconclusive: 3.16 µM [inhibitor, full curve, poor fit].

Q: For COc1ccc(C2=NOC(C(=O)NCc3ccccc3)C2)cc1 (configuration not stated), which Potency is on record?
A: Its Potency is inconclusive: 35.5 µM [inhibitor, single point].

Q: With Cc1ccc(N(C(=O)COc2ccccc2C)S(=O)(=O)c2ccc(Cl)cc2)cc1 as the molecule, how does the Potency read?
A: Its Potency is inconclusive: 35.5 µM [inhibitor, single point].

Q: Which Potency does the source give for COc1ccc(-c2n[nH]c3c2CN(C(=O)c2ccccc2)CC3)cc1 here?
A: The Potency was “inactive”.

Q: With COc1ccccc1/C=C/C(=O)OCC(=O)Nc1cc(C(F)(F)F)ccc1N1CCOCC1 as the molecule, how does the Potency read?
A: The Potency was “inactive”.

Q: Which Potency does the source give for COc1ccc(C(=O)CCC(C)(C)[N+](=O)[O-])cc1 here?
A: Its Potency is inconclusive: 5.62 µM [inhibitor, partial curve].

Q: Which Potency does the source give for CC1(C)Cc2c(cnn2-c2cccc(F)c2)C(NC(=O)Cn2cccn2)C1 (configuration not stated) here?
A: The Potency was inconclusive: 2.24 µM [inhibitor, partial curve, poor fit].

Q: Which Potency does the source give for CN(C)/C=C/C(=C\C(=O)C(F)(F)F)Nc1ccc(C(F)(F)F)cc1 here?
A: The Potency was inconclusive: 35.5 µM [inhibitor, single point].

Q: Which Potency does the source give for O=C(c1ccc([N+](=O)[O-])cc1[N+](=O)[O-])N1CCc2ccccc21 here?
A: The Potency was inconclusive: 17.8 µM [inhibitor, single point].

Q: Which Potency does the source give for COc1ccc(OC)c(CNn2c(-c3ccccc3F)nc3ccccc3c2=O)c1 here?
A: The Potency was “inactive”.

Q: Which Potency does the source give for O=C(Nc1nnc(-c2ccccc2)s1)c1cccc(S(=O)(=O)N2CCOCC2)c1 here?
A: Its Potency is “inactive”.

Q: For CSc1ncc2c(n1)-c1cc(C)ccc1SC2, which Potency is on record?
A: Its Potency is inconclusive: 35.5 µM [inhibitor, partial curve, poor fit].

Q: Which Potency does the source give for COc1ccc(C2=NN(c3ccc(C=O)cc3)C(c3ccccc3)C2)cc1 (configuration not stated) here?
A: The Potency was inconclusive: 17.8 µM [inhibitor, single point].

Q: For COc1ccc(NC(C)C(=O)N/N=C/c2ccccc2OCc2cccc(Br)c2)cc1 (configuration not stated), which Potency is on record?
A: Its Potency is “inactive”.

Q: With Cc1ccc(S(=O)(=O)NCCN2CCOCC2)cc1 as the molecule, how does the Potency read?
A: Its Potency is inconclusive: 14.1 µM [inhibitor, partial curve, poor fit].

Q: For COc1cc(OC)cc(-c2noc(-c3csc([C@@H]4C[C@H](O)[C@@H](CO)O4)n3)n2)c1, which Potency is on record?
A: Its Potency is inconclusive: 3.55 µM [inhibitor, single point].

Q: Which Potency does the source give for COc1ccc(OC)c(-c2csc(NC(=O)C3=COCCO3)n2)c1 here?
A: Its Potency is inconclusive: 5.62 µM [inhibitor, single point].

Q: Which Potency does the source give for COc1cccc(/C=N/NC(=O)c2cc3c(OC)cccc3[nH]2)c1O here?
A: Its Potency is inconclusive: 3.98 µM [inhibitor, single point].

Q: With Cc1oc(-c2ccc(Cl)cc2)nc1CS(=O)CC(=O)NCCN1CCCCCC1 (configuration not stated) as the molecule, how does the Potency read?
A: The Potency was inconclusive: 35.5 µM [inhibitor, single point].

Q: Which Potency does the source give for Oc1cccc2ccc(/C=C/c3ccccc3Cl)nc12 here?
A: Its Potency is inconclusive: 35.5 µM [inhibitor, single point].

Q: With CCCSc1nsc(NC(=O)Nc2ccc(F)cc2F)n1 as the molecule, how does the Potency read?
A: Its Potency is active: 8.91 µM.

Q: Which Potency does the source give for Cc1nn(CC#N)c(=O)n1-c1ccccc1 here?
A: Its Potency is “inactive”.

Q: Which Potency does the source give for Cc1ccc(NC(=O)c2ncn(CC(=O)NCc3ccc4[nH]ccc4c3)n2)cc1C here?
A: The Potency was inconclusive: 35.5 µM [inhibitor, partial curve, poor fit].

Q: Which Potency does the source give for Cc1cc(C2C(C#N)=C(N)Oc3n[nH]c(C)c32)c(C)s1 (configuration not stated) here?
A: Its Potency is inconclusive: 20 µM [inhibitor, single point].

Q: With COCCN1CCc2nc(SCC(=O)Nc3ccc(Br)cc3)[nH]c(=O)c2C1 as the molecule, how does the Potency read?
A: Its Potency is “inactive”.

Q: With OCCN(Cc1ccccc1)CC1CCCCC1 as the molecule, how does the Potency read?
A: Its Potency is inconclusive: 25.1 µM [inhibitor, single point].

Q: With CN1OC[C@@H]2CN(Cc3ccccc3)[C@H](c3ccc(N4CCCCC4)cc3)C[C@@H]21 as the molecule, how does the Potency read?
A: Its Potency is inconclusive: 17.8 µM [inhibitor, single point].

Q: With CCN(CC)S(=O)(=O)c1ccc(S(=O)(=O)N(CC(=O)Nc2ccccc2)CC2CCCO2)cc1 (configuration not stated) as the molecule, how does the Potency read?
A: The Potency was inconclusive: 20 µM [inhibitor, single point].

Q: Which Potency does the source give for O=C(O)c1cc(-c2ccc(/C=C3\NC(=O)N(c4ccc(Cl)cc4)C3=O)o2)ccc1Cl here?
A: Its Potency is inconclusive: 35.5 µM [inhibitor, single point].

Q: Which Potency does the source give for Cc1c2cnn(CC(=O)NCc3ccc(F)cc3)c(=O)c2c(C)n1Cc1ccccc1F here?
A: Its Potency is “inactive”.
